# PubChem BioAssay AID686979 (National Center for Advancing Translational Sciences (NCATS), 2013)
# The campaign covered roughly 420,000 compounds. About 50,000 (12%) were called active. The inconclusive results got no clear call from the source; some entries with a clear call stand among them for comparison. Calls come from the whole dose curve; as a rule, active = well fitted inhibition curve with a large enough effect; inconclusive = small, poorly fitted or top-dose-only effect; inactive = flat fitted curve, though single readings scatter. Potencies of inconclusive entries are left out as doubtful fits.
# Experiment: qHTS for Inhibitors of human tyrosyl-DNA phosphodiesterase 1 (TDP1): qHTS in cells in presence of CPT; note: nearly all actives have a fitted effect of over 55% in size
# Settings: chicken DT40 Tdp1-/-;hTDP1 cells + 20 nM CPT, ATP luminescence, 48 h; activity change, negative = growth inhibition: at 46.2 µM (top of the series)
# Summary of the method: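 Chicken DT40 Tdp1-/- cells complemented with human TDP1, 400 cells/well, exposed to compounds plus 20 nM camptothecin for at least 48 h at 37 C; viability read as ATP content by CellTiter-Glo luminescence.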
# % is set by controls: 0 for no effect and ±100 for the full control effect; potency is the fitted concentration of half-maximal effect; tags give direction and shape of the fitted curve.
Structure (SMILES),Potency,"activity change, negative = growth inhibition"
CCc1ccc(NC(=O)C2CCN(S(=O)(=O)c3c(C)noc3/C=C/N(C)C)CC2)cc1,"inconclusive [inhibitor, single point]",
O=C(c1ccco1)N1CCN(c2nc3ccccc3n3nnnc23)CC1,"inconclusive [inhibitor, single point]",
COCC(=O)N1CCC(Oc2ccc(C(=O)NC3Cc4ccccc4C3)cc2)CC1,inactive,
COc1ccc(CCN(C)C2CCCN(S(=O)(=O)C(C)C)C2)cc1OC (stereo not given),inactive,
CO[C@H]1[C@H](NC(=O)c2ccsc2)c2ccccc2C12CCN(Cc1cnn(C)c1C)CC2,,inactive: 13.2% [at 9.04 µM]
COc1ccc(N2CCN(CCCNC(=O)C3COc4ccc(OC)cc4C3)CC2)cc1 (stereo not given),active: 14.6 µM,
COc1ccccc1CN(C(=O)c1cnccn1)C(C(=O)NC1CCCCC1)c1cc(OC)c(OC)c(OC)c1 (stereo not given),inactive,
COc1ccc2c(CNCc3ccc(Cl)cc3)c(C(=O)O)n(Cc3ccccc3C)c2c1,active: 2.31 µM,
COc1ccccc1NCC(=O)N1CCN(S(=O)(=O)c2ccccc2)CC1,,inconclusive: -33.9% [inhibitor]
COc1cccc(C(=O)NC2CCCc3c2cnn3-c2ccc(C)c(C)c2)c1OC (stereo not given),"inconclusive [inhibitor, single point]",
O=C(Cn1cc(SCc2ccc(C(F)(F)F)cc2)c2ccccc21)N1CCCCC1,"inconclusive [inhibitor, single point]",
Cc1cc(C)n(C(C)CNS(=O)(=O)c2ccccc2)n1 (stereo not given),inactive,
CC(CC(=O)NCc1ccc(Cl)cc1)CC1=NS(=O)(=O)c2ccccc2N1 (stereo not given),"inconclusive [inhibitor, single point]",
CSc1ncccc1C(=O)N1CCN(S(=O)(=O)c2ccccc2)CC1,inactive,
COc1ccc(NC(=O)c2cnn(-c3ccc(C)cc3)c2-n2cccc2)cc1Cl,inactive,
CC(CN1CCN(CC(C)C(=O)c2ccccc2)CC1)C(=O)c1ccccc1 (stereo not given),"inconclusive [inhibitor, single point]",
CC(=O)Nc1cc(C(=O)N(C)Cc2ccco2)ccc1Sc1ccc(C)cc1,"inconclusive [inhibitor, partial curve]",
CC(Cc1cccs1)NC(=O)Nc1ccc(Cl)c(Cl)c1 (stereo not given),active: 23.1 µM,
N#Cc1c(NC(=O)CSc2nc(N)cc(=O)[nH]2)sc2c1CCCC2,"inconclusive [inhibitor, single point]",
COc1ccc(S(=O)(=O)c2cn(C)c3cc(N4CCCCC4)c(F)cc3c2=O)cc1,"inconclusive [inhibitor, single point]",
COc1cc(Cl)c(C)cc1NC(=O)COC(=O)c1cc[n+]([O-])cc1,inactive,
S=Cc1ccc(/C=C/c2ccnc3ccccc23)cc1,"inconclusive [inhibitor, single point]",
COc1ccc2[nH]c3c(c2c1)CCN1C(=O)C(CC(=O)NCc2ccc(OC)c(OC)c2)C[C@H](C(=O)N2CCOCC2)[C@@]31CCC1CCCC1 (stereo not given in full),"inconclusive [inhibitor, single point]",

Structure (SMILES),Potency,"activity change, negative = growth inhibition"
O=C(NC1CC(=O)N(c2ccccc2)C1)C1CCCCC1 (stereo not given),inactive,
Cc1nnc(N2CCCC(C(=O)NCc3cccc(F)c3)C2)c2nn(-c3ccccc3)c(C)c12 (stereo not given),"inconclusive [inhibitor, single point]",
Cc1cc(Br)ccc1NC(=O)c1cc2c(=O)n(C)c3cc(Cl)ccc3c2s1,"inconclusive [inhibitor, single point]",
Cc1ccc(S(=O)(=O)Nc2ccc(S(=O)(=O)Nc3nccs3)cc2)cc1C,inactive,
COc1ccc(-c2nc(C(N)=O)c3[nH]c(=O)n(-c4ccccc4OC)c3n2)c(OC)c1,"inconclusive [inhibitor, single point]",
CCOCCCNC(=S)N1C2CCC1CC(NC(=O)NC13CC4CC(CC(C4)C1)C3)C2 (stereo not given),"inconclusive [inhibitor, full curve]",
CCCCc1nc2sc3c(SCC(=O)NCc4ccco4)ncnc3c2c2c1CCC2,active: 12.6 µM,
Cc1ccc(S(=O)(=O)n2cnc3ccccc32)cc1,inactive,
Cc1ccc(CNC(=O)c2ccccc2NC(=O)CSc2nnnn2C)cc1,"inconclusive [inhibitor, single point]",
COC(=O)Nc1sc2c(c1C(=O)NC1CC1)CCCCCC2,inactive,
CCC(C)(C)n1nnnc1CN1CCC(O)(c2cccc(C(F)(F)F)c2)CC1,"inconclusive [inhibitor, single point]",
c1ccc(Oc2ccc(-c3ccnc4nc(N5CCN(c6ccccc6)CC5)nn34)cc2)cc1,"inconclusive [inhibitor, single point]",
CCOc1ccc(CCNC(=O)CN2C(=O)NC3(CCCC3)C2=O)cc1OCC,inactive,
Cc1cc(C)cc(NC(=O)CSc2nccn2-c2ccccc2)c1,"inconclusive [inhibitor, partial curve]",
Cc1occc1C(=O)Nc1c(F)cc(F)cc1Br,"inconclusive [inhibitor, single point]",
CCCNC(=O)c1ccc2c(=O)c(O)c(-c3ccc(F)cc3)[nH]c2c1,"inconclusive [inhibitor, partial curve, poor fit]",
COc1ccc(N/C=C\C(=O)c2ccc3c(c2)OCO3)cc1OC,inactive,
COc1cc(C[C@H](C)[C@H](C)Cc2ccc3c(c2)OCO3)ccc1O,"inconclusive [inhibitor, single point]",
Nc1cc(C(F)(F)F)ccc1NCCc1ccccn1,inactive,
Cc1ccc(-c2nc3[nH]c(=O)cc(NC(=O)C(C)C)n3n2)cc1,"inconclusive [inhibitor, single point]",
Cc1ccc(SCC(=O)NCCC2=CCCCC2)cc1,"inconclusive [inhibitor, single point]",
Cc1cc2nc(NCCCO)n(CC(=O)c3cc(C(C)(C)C)c(O)c(C(C)(C)C)c3)c2cc1C,active: 16.4 µM,
